PubChem BioAssay AID624417 (National Center for Advancing Translational Sciences (NCATS), 2012)
“And” between values parts separate entries of the source, which are not always exact repeats. Equal values may be shown once. Among all 410,000 compounds or so, about 6,400 (1.6%) were called active. This list was built around the results that the source calls inconclusive (neither active nor inactive); the mix of calls is not that of the screen. Calls follow the shape of the dose curve; as a rule, active = well fitted inhibition curve with a large enough effect; inconclusive = small, poorly fitted or top-dose-only effect; inactive = no such curve, though single readings can be large or run the other way. Where the call is inconclusive, the potency comes from a doubtful curve fit.

Molecular target: Glucagon-like peptide 1 receptor (Homo sapiens) (UniProt P43220)
Experiment: qHTS of GLP-1 Receptor Inverse Agonists (Inhibition Mode); also: nearly all actives have a fitted effect of over 55% in size
Conditions: HEK293 GLP-1R CRE-luciferase, luminescence, 24 h, GLP-1R form is constitutively active; activity change, negative = inhibition: at 38.3 µM (top of the series) unless noted
Procedure, shortened: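 Seeding at 200 cells/uL, 12 h culture, 24 hr compound treatment, then luciferase reagent and a luminescence read; cells are HEK293 stably expressing a constitutively active GLP-1R plus cAMP-responsive luciferase.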
% is scaled to controls: 0 for no effect and ±100 for the full control effect; potency is read from the fitted curve at half-maximal effect; tags tell the direction and shape of the fitted curve.

Chain of UniProt P43220 (P43220 whole entry, looked up): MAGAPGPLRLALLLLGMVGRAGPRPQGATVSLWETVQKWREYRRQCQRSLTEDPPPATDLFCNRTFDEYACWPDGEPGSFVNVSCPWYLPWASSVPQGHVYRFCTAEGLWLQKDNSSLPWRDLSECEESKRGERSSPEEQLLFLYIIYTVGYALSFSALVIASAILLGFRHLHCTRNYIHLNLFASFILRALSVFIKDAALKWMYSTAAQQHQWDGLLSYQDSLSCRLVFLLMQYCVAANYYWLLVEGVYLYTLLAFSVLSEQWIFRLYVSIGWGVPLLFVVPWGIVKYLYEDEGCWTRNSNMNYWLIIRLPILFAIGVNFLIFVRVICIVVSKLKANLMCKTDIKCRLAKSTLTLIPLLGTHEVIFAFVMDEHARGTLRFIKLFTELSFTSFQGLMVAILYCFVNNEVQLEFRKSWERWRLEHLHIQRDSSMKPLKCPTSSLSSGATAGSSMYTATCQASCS

Question: With COc1ccc(C(c2nnnn2CCc2ccccc2)N2CCN(C3CCCC3)CC2)cc1 (configuration not stated) as the molecule, how does the “activity change, negative = inhibition” value read?
Answer: inactive: -29.7%

Question: For Cc1cc(C(=O)COC(=O)c2ccc(O)cc2)c(C)n1CCc1ccc(F)cc1, which Potency is on record?
Answer: inconclusive: 28.2 µM [inhibitor, single point]

Question: Which “activity change, negative = inhibition” value does the source give for CCOC(=O)c1c(SCC(=O)Nc2nc3ccc(C)cc3s2)nc(=O)[nH]c1C here?
Answer: inactive: 7.3%

Question: How did the Potency turn out when O=C1CCCC2=C1C(c1ccc(O)c(O)c1)Nc1ccc3ccccc3c12 (configuration not stated) was run?
Answer: inconclusive: 28.2 µM [inhibitor, single point]

Question: Which Potency does the source give for Oc1ccc(Nc2nc(N3CCCC3)c3ccccc3n2)cc1 here?
Answer: inconclusive: 28.2 µM [inhibitor, single point]

Question: For Cc1ccc(C(=O)Nc2nc3ccc(S(C)(=O)=O)cc3s2)s1, which “activity change, negative = inhibition” value is on record?
Answer: inactive: -5.7%

Question: Which Potency does the source give for COc1cccc(N(C(=O)c2ccn[nH]2)C2(C(=O)Nc3c(C)cccc3C)CCCCC2)c1 here?
Answer: inconclusive: 12.6 µM [inhibitor, partial curve, poor fit]

Question: For Cc1[nH]c(=S)[nH]c(=O)c1Cc1c(O)ccc2ccccc12, which “activity change, negative = inhibition” value is on record?
Answer: inactive: 26.5%

Question: How did the “activity change, negative = inhibition” value turn out when Cc1ccc(OCC(=O)Nc2ccc3nc(SCC(=O)N4CCCC4)sc3c2)cc1 was run?
Answer: inactive: 6.03%

Question: How did the Potency turn out when Oc1ccccc1N1CCN(c2ncnc3scc(-c4ccccc4)c23)CC1 was run?
Answer: active: 11.2 µM

Question: With CNC(=O)c1ccc2c(c1)N=C(C)c1cc(C)ccc1S2 as the molecule, how does the Potency read?
Answer: inconclusive: 3.98 µM [inhibitor, partial curve]

Question: How did the Potency turn out when CCOC(=O)C1=NNC(C(=O)c2ccc(C)cc2)C1c1ccc(C)cc1 (configuration not stated) was run?
Answer: inconclusive: 11.2 µM [inhibitor, partial curve]

Question: How did the Potency turn out when C/C(=N/NC(N)=S)c1ccc(Br)s1 was run?
Answer: inconclusive: 2.51 µM [inhibitor, full curve, poor fit]

Question: Which Potency does the source give for O=c1[nH][nH]c2c1C(c1cccc(C(F)(F)F)c1)OC(CCc1ccccc1)C2 (configuration not stated) here?
Answer: inconclusive: 7.94 µM [inhibitor, partial curve]

Question: For CCC(C)NC(=O)c1csc2c1CCCCC2 (configuration not stated), which Potency is on record?
Answer: inconclusive: 20 µM [inhibitor, single point]

Question: How did the Potency turn out when Cc1cc(C)c(C)c(OCCOCCNCc2ccccc2)c1 was run?
Answer: inconclusive: 10 µM [inhibitor, partial curve, poor fit]

Question: Which Potency does the source give for O=C(NC1CCN(Cc2ccccc2)CC1)c1ccccc1OCc1ccccc1Cl here?
Answer: inconclusive: 6.31 µM [inhibitor, partial curve, poor fit]

Question: How did the Potency turn out when CCCCCC(=O)N1C[C@@H](n2cc(-c3ccc(F)cc3)nn2)[C@H](O)C[C@@H]1c1ccc(OC)cc1 was run?
Answer: active: 11.2 µM

Question: Which Potency does the source give for CC(O)(c1cccc(F)c1)c1nc(/C=C/c2ccccc2)cs1 (configuration not stated) here?
Answer: inconclusive: 14.1 µM [inhibitor, single point]

Question: Which Potency does the source give for CCCCn1c(NCc2ccccc2O)nc2ccccc21 here?
Answer: inconclusive: 28.2 µM [inhibitor, single point]

Question: Which Potency does the source give for CCN(Cc1nc2ccccc2c(=O)[nH]1)C(=O)C1CC(=O)N(c2cccc3ccccc23)C1 (configuration not stated) here?
Answer: inconclusive: 28.2 µM [inhibitor, single point]

Question: CCC(=O)N(Cc1cc2cc(OC)ccc2[nH]c1=O)c1ccc(C)cc1 was tested. Which Potency did it give?
Answer: inconclusive: 10 µM [inhibitor, single point]

Question: With Cc1ccc(CNC(=O)c2ccc(CSCc3ccc(C)cc3)o2)cc1 as the molecule, how does the Potency read?
Answer: inconclusive: 28.2 µM [inhibitor, single point]

Question: For Cn1c(=O)oc2cc(S(=O)(=O)NCCN3CCN(c4ccccc4F)CC3)ccc21, which “activity change, negative = inhibition” value is on record?
Answer: inactive: -11%

Question: With Cc1cc2nc(-c3ccc(F)cc3)c(CC(C)(C)C)n2c(C)c1Br as the molecule, how does the Potency read?
Answer: inconclusive: 12.6 µM [inhibitor, partial curve, poor fit]

Question: For Cc1ccc(OCC(=O)Nc2cccc3ccccc23)c([N+](=O)[O-])n1, which Potency is on record?
Answer: inconclusive: 5.62 µM [inhibitor, full curve, poor fit]

Question: For Cc1ccc(OCCn2cc(/C=C(\C#N)C(=O)NCC3CCCO3)c3ccccc32)cc1 (configuration not stated), which Potency is on record?
Answer: inconclusive: 11.2 µM [inhibitor, partial curve, poor fit]

Question: With COc1cccc(NC(=O)CN(C)C(=O)c2cc(-c3ccccc3)nc3ccccc23)c1 as the molecule, how does the Potency read?
Answer: inconclusive: 11.2 µM [inhibitor, partial curve, poor fit]

Question: CCN(CC)CCCNc1nc(CN2CCOCC2)nc2sc3c(c12)CCC3 was tested. Which Potency did it give?
Answer: inconclusive: 10 µM [inhibitor, partial curve, poor fit]

Question: How did the Potency turn out when CC(=O)C1=C(C)NC(SCC(=O)c2cc(Cl)ccc2Cl)=C(C#N)C1c1ccco1 (configuration not stated) was run?
Answer: inconclusive: 14.1 µM [inhibitor, single point]

Question: Which Potency does the source give for CNC(=O)c1nnsc1S(=O)c1ccc(Cl)cc1 (configuration not stated) here?
Answer: inconclusive: 11.2 µM [inhibitor, partial curve, poor fit]

Question: How did the Potency turn out when C=CCN1C(=O)N(c2ccc(Cl)cc2)C(=O)C1CC(=O)Nc1ccc(F)cc1 (configuration not stated) was run?
Answer: inconclusive: 12.6 µM [inhibitor, single point]

Question: CCN(c1ccc(OC)cc1)S(=O)(=O)c1nnc(NC(=O)c2ccccc2Cl)s1 was tested. Which Potency did it give?
Answer: inconclusive: 11.2 µM [inhibitor, single point] and inconclusive: 8.91 µM [inhibitor, partial curve, poor fit]

Question: For COc1ccc(O)cc1CN1CCN(c2ncc(Cc3ccccc3)cn2)CC1, which Potency is on record?
Answer: inconclusive: 7.94 µM [inhibitor, partial curve]

Question: With CCOc1ccccc1OCC(=O)N/N=C(\C)Cc1ccc(OC)cc1 as the molecule, how does the Potency read?
Answer: inconclusive: 10 µM [inhibitor, partial curve, poor fit]

Question: With O=C1CC(c2nc3ccccc3n2CCCOc2ccccc2)CN1c1ccc(F)cc1 (configuration not stated) as the molecule, how does the Potency read?
Answer: inconclusive: 7.94 µM [inhibitor, partial curve, poor fit]

Question: How did the activity change, negative = inhibition turn out when CC1(c2ccccc2)CC(C)(C)N2C(=O)Cc3cccc1c32 (configuration not stated) was run?
Answer: inconclusive: -31.5% [inhibitor] [at 7.66 µM]

Question: How did the Potency turn out when Cc1ccc(/C=N/NC(=O)c2ccc3c(c2)OCCO3)s1 was run?
Answer: inconclusive: 12.6 µM [inhibitor, single point]

Question: How did the “activity change, negative = inhibition” value turn out when CN(C)CCNC(=O)CCCN1C(=O)c2cccnc2Oc2ccc(Cl)cc21 was run?
Answer: inactive: 14.1%

Question: For CCCn1c(N2CCN(CC(=O)Nc3ccc4c(c3)OCCO4)CC2)nc2ccccc21, which Potency is on record?
Answer: inconclusive: 2 µM [inhibitor, full curve, poor fit]

Question: C=Cc1ccc(CSc2nc(-c3ccccc3Cl)nc3c2Cc2c(CO)cnc(C)c2O3)cc1 was tested. Which “activity change, negative = inhibition” value did it give?
Answer: inactive: 3.58%

Question: Cc1nc(N2CCCC2)c2c(C(=O)N3CCN(c4cccc(Cl)c4)CC3)c(C)oc2n1 was tested. Which Potency did it give?
Answer: inconclusive: 11.2 µM [inhibitor, single point]

Question: With Cc1cccc(C)c1NC(=S)N=Nc1c(O)n(C)c2ccc(S(=O)(=O)N3CCOCC3)cc12 as the molecule, how does the Potency read?
Answer: inconclusive: 1.26 µM [inhibitor, partial curve, poor fit]

Question: Which Potency does the source give for CCC(=O)N1CCN(c2ccc(Cl)cc2NC(=O)Cc2ccccc2)CC1 here?
Answer: inconclusive: 7.08 µM [inhibitor, partial curve, poor fit]

Question: How did the Potency turn out when COc1ccc(NC(=O)CN(c2ccccc2OC)S(=O)(=O)c2cccs2)cc1Cl was run?
Answer: inconclusive: 28.2 µM [inhibitor, single point]

Question: For COc1ccccc1Sc1nc(-c2ccccc2)ncc1OC, which Potency is on record?
Answer: inconclusive: 12.6 µM [inhibitor, single point]

Question: How did the Potency turn out when Cc1cccc(N2C(=O)CSC23C(=O)N(Cc2cccc(C(F)(F)F)c2)c2ccccc23)c1 (configuration not stated) was run?
Answer: inconclusive: 28.2 µM [inhibitor, single point]

Question: With Cc1ccc(NC2=CC(=O)CC(c3ccc(Cl)cc3)C2)cc1 (configuration not stated) as the molecule, how does the Potency read?
Answer: inconclusive: 12.6 µM [inhibitor, partial curve, poor fit]

Question: C/C(=N\Nc1ccc(F)cc1F)c1ccc(N2CCOCC2)cc1 was tested. Which Potency did it give?
Answer: inconclusive: 1.78 µM [inhibitor, full curve]

Question: How did the Potency turn out when O=Cc1cc(N=Nc2ccc(S(=O)(=O)O)cc2)ccc1O was run?
Answer: inconclusive: 11.2 µM [inhibitor, single point]

Question: CC(C)CNC(=O)COC(=O)c1c2c(nc3ccccc13)/C(=C\c1cccs1)CC2 was tested. Which Potency did it give?
Answer: active: 4.47 µM

Question: For O=C(Nc1sc(-c2ccccc2)cc1C(=O)O)c1ccccc1, which Potency is on record?
Answer: inconclusive: 25.1 µM [inhibitor, single point]

Question: Which Potency does the source give for Clc1ccc(N/N=C/c2ccncc2)cc1Cl here?
Answer: inconclusive: 20 µM [inhibitor, single point]

Question: For Cc1ccsc1C(=O)NCC(c1cccs1)N1CCOCC1 (configuration not stated), which Potency is on record?
Answer: inconclusive: 28.2 µM [inhibitor, single point]

Question: How did the Potency turn out when CCOC(=O)C(NC(=O)c1cccc(Cl)c1)(OCc1ccccc1)C(F)(F)F (configuration not stated) was run?
Answer: inconclusive: 10 µM [inhibitor, partial curve, poor fit]

Question: Which Potency does the source give for COc1cc(CNCCSc2nnnn2C)cc(Br)c1OCc1ccccc1 here?
Answer: inconclusive: 7.08 µM [inhibitor, partial curve, poor fit]

Question: Which Potency does the source give for Cc1cc2c(cc1S(=O)(=O)N1CCN(c3ccc(Cl)cc3)CC1)OCCN2C here?
Answer: inconclusive: 12.6 µM [inhibitor, single point]

Question: How did the Potency turn out when Cc1ccc(NS(=O)(=O)c2ccc3[nH]c4c(c3c2)CCCCCC4)cc1Cl was run?
Answer: inconclusive: 11.2 µM [inhibitor, partial curve, poor fit]

Question: CCOC(=O)c1sc(NC(=O)c2cc(CC)on2)c(C(=O)OCC)c1C was tested. Which “activity change, negative = inhibition” value did it give?
Answer: inactive: 1.7%

Question: COc1ccc2nc(SCC(=O)Nc3c(C)cc(C)cc3C)[nH]c2c1 was tested. Which Potency did it give?
Answer: inconclusive: 22.4 µM [inhibitor, single point]

Question: Which “activity change, negative = inhibition” value does the source give for COc1ccc(-c2noc([C@@H]3O[C@H](CO)[C@H](O)[C@H](O)[C@H]3O)n2)cc1OC here?
Answer: inactive: 8.28%

Question: Which Potency does the source give for C/C(=N\N=C1\NC(=O)C(CC(=O)Nc2ccc(Cl)cc2)S1)c1ccco1 (configuration not stated) here?
Answer: inconclusive: 11.2 µM [inhibitor, single point]
